Consider 72 compounds from the supplement of paper PMC10600219.

Where a name gives a salt, the structure may show the parent alone. Over roughly 2,800 compounds, “cell viability relative to vehicle” has its median near 0.98; the lowest 2% begin near 0.45. The list shows a part of the results.

The assay deals with NCI-H2228 alectinib-DTP. Put plainly: cell viability relative to vehicle (fraction of vehicle); NCI-H2228 is an ALK-positive lung cancer line and DTP means drug-tolerant persister; higher = less growth inhibition. As to conditions: 100 nM; treatment time 6 days. Put shortly:
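The 3114-agent TargetMol anti-cancer compound library was tested at 100 nM for 6 days on parental NCI-H2228 cells and on persister cells derived with 1000 nM of a targeted drug for 13 days. ATP readout by the CellTiter-Glo 3D Cell Viability Assay gave cell viability relative to DMSO vehicle-treated cells.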
The compound `O=c1cc(-c2ccccc2)oc2cc(O)cc(O)c12` [Chrysin] gave a cell viability of 0.861. Compound `O=c1sn(-c2cccc3ccccc23)c(=O)n1Cc1ccccc1` [Tideglusib] came in with a cell viability of 0.82. `Cc1noc(-c2ccc(-c3ccc(CC(=O)O)cc3)cc2)c1NC(=O)O[C@H](C)c1ccccc1` returned a cell viability of 0.874. `CC(C)=CCC[C@](C)(O[C@@H]1O[C@H](CO)[C@@H](O)[C@H](O)[C@H]1O)[C@H]1CC[C@]2(C)[C@@H]1[C@H](O)C[C@@H]1[C@@]3(C)CC[C@H](O)C(C)(C)[C@@H]3[C@@H](O[C@@H]3O[C@H](CO)[C@@H](O)[C@H](O)[C@H]3O)C[C@]12C` [Ginsenoside Rg1] had a cell viability of 0.947. In turn, `O=C1NCCc2[nH]c(-c3ccncc3)cc21` returned a cell viability of 0.998.

For `Cc1ccc(NC(=O)c2cccc(N(C)C)c2)cc1NC(=O)c1ccc(O)cc1`, the cell viability was determined as 0.899. Compound `COc1ccc(S(=O)(=O)Nc2cccnc2Nc2ccc(O)cc2)cc1` returned a cell viability of 0.905. Compound `CCNC(=O)CCC/C=C\C[C@@H]1[C@@H](/C=C/[C@@H](O)CCc2ccccc2)[C@H](O)C[C@@H]1O` [Bimatoprost] gave a cell viability of 0.982. As for `COC(=O)C1=C(C)NC(C)=C(C(=O)OC2CCCN(Cc3ccccc3)C2)C1c1cccc([N+](=O)[O-])c1` (configuration not stated) [Benidipine hydrochloride], the cell viability is 1.04. `O=C(Cl)C(=O)c1c[nH]c2ccccc12` [Indole-3-Glyoxylyl Chloride] came in with a cell viability of 1.1. As to `O=C(CCCCCCC(=O)Nc1ccccc1)NO` [Vorinostat], the cell viability worked out at 0.786. On to `O=C(/C=C/c1ccc(O)c(O)c1)c1ccc(O)cc1O` [Butein], for which the cell viability turned out to be 1.03. Consider `CCN(CC)CCOc1ccc2c(c1)C(=O)c1cc(OCCN(CC)CC)ccc1-2` [Tilorone dihydrochloride], for which the cell viability came out at 1.03. `O=C(O)c1ccc2c(c1)nc(Nc1cccc(Cl)c1)c1ccncc12` [Silmitasertib] yielded a cell viability of 0.834. Under `COc1ccc(C=CC(=O)O)cc1OC` [3,4-Dimethoxycinnamic acid] stands 0.979; under `Nc1[nH]nc2nnc(-c3c(-c4ccccc4)nn4ccccc34)cc12`, 1.15; under `Cc1cc(NS(=O)(=O)c2ccc(N)cc2)no1` [Sulfamethoxazole], 1.

The compound `C=C1CC[C@@H]2[C@](C)(CO[C@@H]3O[C@H](CO)[C@@H](O)[C@H](O)[C@H]3O)CCC[C@@]2(C)[C@@H]1CCC1=CCOC1=O` [Neoandrographolide] yielded a cell viability of 0.966.

Regarding `CC(C)N(CCCNC(=O)Nc1ccc(C(C)(C)C)cc1)C[C@H]1O[C@@H](n2cc(Br)c3c(N)ncnc32)[C@H](O)[C@@H]1O`, the cell viability turned out to be 0.881. For the compound `COc1cc(O)c2c(=O)c(O[C@@H]3O[C@H](CO)[C@@H](O)[C@H](O)[C@H]3O)c(-c3ccc(O[C@@H]4O[C@H](CO)[C@@H](O)[C@H](O)[C@H]4O)cc3)oc2c1` [Complanatoside], the cell viability was found to be 1. The compound `C[C@H](CCC(=O)NCC(=O)O)[C@H]1CC[C@H]2[C@@H]3[C@H](O)C[C@@H]4C[C@H](O)CC[C@]4(C)[C@H]3CC[C@]12C` [Glycochenodeoxycholic Acid] showed a cell viability of 0.992. In the case of `CC1(C)S[C@@H]2[C@H](NC(=O)C(C(=O)O)c3ccccc3)C(=O)N2[C@H]1C(=O)O` (some centres not stated) [Carbenicillin disodium], the cell viability is 0.917. The compound `CCN(CC)CCOC(=O)C(Cc1cccc2ccccc12)CC1CCCO1` (configuration not stated) [Nafronyl oxalate] had a cell viability of 1.03. Compound `CC(C)NCC(O)COc1ccc(COCCOC(C)C)cc1` (racemic) [(±)-Bisoprolol hemifumarate] gave a cell viability of 1.1. In the case of `Cn1cc(-c2nc(N[C@@H]3CCCC[C@@H]3N)c(F)c3c2C(=O)NC3)cn1` [TAK-659 hydrochloride], the cell viability was 1. As for `CC1CCC2(OC1)OC1CC3C4CCC5CC(O)CCC5(C)C4CCC3(C)C1C2C` (configuration not stated) [Spirostan-3-ol], the cell viability is 1.11. Turning to `C[C@H](N)[C@H](O)c1cccc(O)c1` [Metaraminol bitartrate], the cell viability is 0.877. With `Clc1ccc(C(c2c[nH]c3ccccc23)c2c[nH]c3ccccc23)cc1`, the cell viability was 0.929. Regarding `CC(C)OC(=O)C1=CN(C(=O)c2ccc(F)c(F)c2)CC(C)(C)c2c1[nH]c1ccccc21` [Turofexorate Isopropyl], the cell viability came to 0.847.

Compound `CN(CCNc1ccnc2cc(Cl)ccc12)CCNc1ccnc2cc(Cl)ccc12` yielded a cell viability of 0.979. Consider `O=C(/C=C\n1cnc(-c2cc(C(F)(F)F)cc(C(F)(F)F)c2)n1)N1CC(F)(F)C1`, for which the cell viability amounted to 0.774. For the compound `CC(C)(C)[N+]([O-])=Cc1ccc(S(=O)(=O)O)cc1S(=O)(=O)O`, the cell viability stood at 0.951. Compound `CC(=O)OC(C)(C)CCC(=O)[C@](C)(O)[C@H]1[C@H](O)C[C@@]2(C)[C@@H]3CC=C4[C@@H](C[C@H](O)[C@@H](O)C4(C)C)[C@]3(C)C(=O)C[C@]12C` [Cucurbitacin IIA] came in with a cell viability of 1.07.

Take `O=C[C@H](O)[C@@H](O)[C@H](O)[C@H](O)CO[C@H]1O[C@H](CO[C@H]2O[C@H](CO)[C@H](O)[C@H](O)[C@H]2O)[C@H](O)[C@H](O)[C@H]1O` [Manninotriose]: the cell viability was 1.14. In the case of `C[C@]12CC[C@@H]3c4ccc(OC(=O)c5ccccc5)cc4CC[C@H]3[C@@H]1CC[C@@H]2O` [Estradiol benzoate] it was 1.15. For `Cc1ccc(F)c(NC(=O)Nc2ccc(-c3cccc4[nH]nc(N)c34)cc2)c1` [Linifanib], the cell viability turned out to be 0.881.

As to `CC(=O)OC(C)OC(=O)C(C)c1ccc(-c2ccccc2)c(F)c1` (configuration not stated) [Flurbiprofen Axetil], the cell viability stood at 0.965. `CC[C@@H](C)Nc1cc(C(=O)N[C@H]2C[C@H]3CC[C@@H](C2)N3c2ccc(C(=O)C3CC3)cn2)c(C)cc1C(N)=O` returned a cell viability of 0.497. `CN(c1nccc(=O)[nH]1)C1CCN(c2nc3ccccc3n2Cc2ccc(F)cc2)CC1` [Mizolastine]: the cell viability is 0.895.

As for `OCCN(CCO)c1nc(N2CCCCC2)c2nc(N(CCO)CCO)nc(N3CCCCC3)c2n1` [Dypyridamole], the cell viability came to 0.968. `CC[C@H](CO)Nc1nc(NCc2ccccc2)c2ncn(C(C)C)c2n1` [Roscovitine] displayed a cell viability of 0.956. `CCn1c2ccccc2c2cc(CNCc3ccccc3OC)ccc21` [HLCL-61 hydrochloride] showed a cell viability of 0.954. In turn, `Cc1cccc(CC(=O)N2CCc3c2ccc(-c2cn(C)c4ncnc(N)c24)c3F)n1` showed a cell viability of 1. In the case of `C[C@@H]1C[C@H]2[C@@H]3CCC4=CC(=O)C=C[C@]4(C)[C@@]3(F)[C@@H](O)C[C@]2(C)[C@@]1(O)C(=O)COP(=O)(O)O` [Dexamethasone Sodium Phosphate] it was 0.734; in that of `COc1ccc(-n2c(SCCCN3C(=O)c4cccc5cccc(c45)C3=O)nnc2-c2ccncc2)cc1`, 0.898; in that of `Cc1c(-c2cnccn2)ssc1=S` [Oltipraz], 1.01.

`Cc1ccc(=O)n(-c2ccccc2)c1` [Pirfenidone] registered a cell viability of 0.838. `N#Cc1cc2cc(CN3CCC(Nc4ncnc5sc(CC(F)(F)F)cc45)CC3)ccc2[nH]1` gave a cell viability of 1.04. `Nc1c2ccccc2nc2ccccc12` [Aminacrine]: the cell viability was found to be 1.01.

For `CNc1nc(-c2cccc(NC(=O)c3ccc(C(=O)OC)cc3)c2)c2cc(OC)c(OC)cc2n1` [Lotamilast], the cell viability is 1.09. `CCN1CCN(Cc2ccc(C(=O)Nc3ccc(C)c(Oc4ccc5c(c4)CC(=O)N5)c3)cc2C(F)(F)F)CC1` had a cell viability of 1.02. As to `N[C@@H](Cc1cc(I)c(Oc2ccc(O)c(I)c2)c(I)c1)C(=O)O` [Liothyronine sodium], the cell viability stood at 1.02. As to `N[C@@H](Cc1cc(I)c(Oc2ccc(O)c(I)c2)c(I)c1)C(=O)O` [O-(4-Hydroxy-3-iodophenyl)-3,5-diiodo-L-tyrosine], the cell viability stood at 0.898.

As for `COc1cc(N2CCOCC2)ccc1Nc1ncc(F)c(Nc2ccccc2NS(C)(=O)=O)n1`, the cell viability was 1.08. As to `O=C(Oc1cc(S(=O)(=O)c2ccccc2)ccc1[N+](=O)[O-])c1ccc(Cl)cc1`, the cell viability came to 1.07. Turning to `COc1ccc(C2CC(=O)c3c(O)cc(OC4OC(COC5OC(C)C(O)C(O)C5O)C(O)C(O)C4O)cc3O2)cc1OC` (configuration not stated) [Methyl hesperidin], the cell viability is 1.04. As to `NC(=O)c1ccc(OCCCN2CC3CCCC3C2)cc1` (configuration not stated), the cell viability is 1.11. In the case of `CCOC(=O)/C=C/c1ccc(O)c(O)c1` [Ethyl caffeate] it was 1.02; in that of `Cc1cc(CN2CCN(c3c(Br)cnc4nc(-c5ccc(N6CCN(C)CC6)cc5)[nH]c34)CC2)no1`, 0.905; in that of `C=CC(=O)N1C/C(=C\c2ccc([N+](=O)[O-])cc2)C(=O)/C(=C/c2ccc([N+](=O)[O-])cc2)C1`, 1.01.

Compound `CNc1nc(Nc2cn(C(C)(C)C#N)nc2C)ncc1C(F)(F)F` yielded a cell viability of 1.01. Turning to `CC(C)(O)CNc1ncc(-c2ccnc(Nc3ccnc(Cl)c3)n2)c(CC2CC2)n1`, the cell viability worked out at 0.904.

For the compound `Cn1c(-c2ccccc2C(F)(F)F)nnc1C12CCC(c3noc(C4CC(F)(F)C4)n3)(CC1)CC2`, the cell viability is 1.2. In the case of `COCCCN1CCC(NC(=O)c2cc(Cl)c(N)c3c2OCC3)CC1` [Prucalopride] it was 1.03; in that of `CCCCCCNC(=O)Nc1ccc(S(=O)(=O)Nc2ccc(CCNC[C@H](O)COc3ccc(O)cc3)cc2)cc1`, 1.21.

Consider `O=C(Nc1ccncc1)c1cc([N+](=O)[O-])ccc1Cl`, for which the cell viability worked out at 0.871. The compound `c1nc2c(NC3CCCCC3)nc(Nc3ccc(N4CCOCC4)cc3)nc2[nH]1` [Reversine] gave a cell viability of 0.973. `COc1cc2nccc(Oc3ccc(NC(=O)NC4CC4)c(Cl)c3)c2cc1C(N)=O` [Lenvatinib]: the cell viability was 0.993. Take `CC(C)=CCC(OC(=O)C=C(C)C)C1=CC(=O)c2c(O)ccc(O)c2C1=O` (stereo not drawn) [beta, beta-dimethylacrylshikonin]: the cell viability stood at 0.892. In the case of `COc1ccc(S(=O)(=O)N[C@@H](CNc2nc(C)nc(N3CCC(c4ccc5c(n4)NCCC5)CC3)c2C)C(=O)O)cc1` it was 0.626; in that of `CCC(C)(Oc1ccc(C2(c3ccc(OC(C)(CC)C(=O)O)cc3)CCCCC2)cc1)C(=O)O` (configuration not stated) [Clinofibrate], 1.09; in that of `CNc1cc(-c2cccc(Cl)c2Cl)nc(N)n1` [TH287 hydrochloride], 1.08.
